Out of some 150,000 compounds screened, about 540 (0.36%) showed an effect of 50% or more. This is one part of the list.
Test system: Plasmodium falciparum
Experiment: Primary screen in NF54 nanoGlo assay, in single point, at 2uM, 72h; a lower Z score goes with more inhibition
Format: functional, Erythrocyte
Conditions: timepoint 72 hour

**Q.** How did the “% Inhibition” value turn out when `CN(CCCn1ccnc1)c1ccnc2cc(Br)ccc12` was run?
**A.** 99%

**Q.** What about the Z score of the same compound?
**A.** -17.18

**Q.** Which results are given for `Cc1cc(O)c2cccc(-c3cccc4c3CCNC4)c2n1`?
**A.** % Inhibition: -10%; Z score: 1.46

**Q.** How did the “% Inhibition” value turn out when `Nc1nc(CCCNC2CCC3(CCNCC3)CC2)cs1` was run?
**A.** 3%

**Q.** And the Z score?
**A.** -0.45

**Q.** Which results are given for `Cc1ccc(C(=O)N2CCC(Nc3nc(N)c4cnn(C)c4n3)CC2)cc1`?
**A.** % Inhibition: 13%; Z score: -2.87

**Q.** With `Cc1ccc(NCCCNCc2ccc(Cl)c(F)c2)nc1` as the compound, how does the “% Inhibition” value read?
**A.** -1%

**Q.** And the Z score?
**A.** 0.08

**Q.** With `CC[C@H](O)CN1CCC(Nc2ncc(Cl)cn2)CC1` as the compound, how does the “% Inhibition” value read?
**A.** -13%

**Q.** What about the Z score of the same compound?
**A.** 2.62

**Q.** How did the “% Inhibition” value turn out when `CCc1cc(-c2nc([C@H](Cc3ccccc3)OC)no2)cc(=O)[nH]1` was run?
**A.** -10%

**Q.** What about the Z score of the same compound?
**A.** 1.52

**Q.** How did the “% Inhibition” value turn out when `c1cc(COC[C@H]2CCCCO2)cc(Nc2nc3ccccc3o2)c1` was run?
**A.** -1%

**Q.** What about the Z score of the same compound?
**A.** 0.24

**Q.** How did the “% Inhibition” value turn out when `CCOCCN(Cc1ccc(C(=O)O)o1)C(=O)c1cc(-c2ccc(OC)cc2)n[nH]1` was run?
**A.** -2%

**Q.** What about the Z score of the same compound?
**A.** 0.41

**Q.** For `CCc1cccc2c(C3CCN(C(=O)[C@H](C)N4CCN(C)CC4)CC3)c[nH]c12`, which “% Inhibition” value is on record?
**A.** 4%

**Q.** And the Z score?
**A.** -0.79

**Q.** How did the “% Inhibition” value turn out when `O=C1c2n[nH]c(-c3ccccc3O)c2[C@@H](c2ccccc2F)N1Cc1ccc2c(c1)OCO2` was run?
**A.** -10%

**Q.** What about the Z score of the same compound?
**A.** 1.49

**Q.** Which results are given for `Fc1ccc(-n2cc(CNCCC3CCN(c4ccncc4)CC3)cn2)cc1`?
**A.** % Inhibition: 91%; Z score: -15.93

**Q.** With `CCc1cnc(N)nc1NC[C@H]1CCCCCN1` as the compound, how does the “% Inhibition” value read?
**A.** 1%

**Q.** And the Z score?
**A.** -0.26

**Q.** Which results are given for `O=C(c1c[nH]c2ccccc12)N1CCN(c2nc(-c3ccsc3)cs2)CC1`?
**A.** % Inhibition: -8%; Z score: 1.44

**Q.** What does the source list for `CCn1nc(CO)c2c1CCN(Cc1cc(C(C)=O)cn1C)C2`?
**A.** % Inhibition: -7%; Z score: 1.2

**Q.** `CC[C@]1(CO)CCCN1C(=O)CCc1cccc(OC(F)F)c1` was tested. Which “% Inhibition” value did it give?
**A.** -6%

**Q.** What about the Z score of the same compound?
**A.** 0.91

**Q.** Which results are given for `Cn1cc(N2CCN(CCc3cc(Cl)cc(Cl)c3)CC2=O)cn1`?
**A.** % Inhibition: -2%; Z score: 0.26

**Q.** Which “% Inhibition” value does the source give for `c1cc(NCc2cccc3[nH]ccc23)cc(-c2nnc[nH]2)c1` here?
**A.** -4%

**Q.** And the Z score?
**A.** 0.68

**Q.** With `OC1(c2cccc(C(F)(F)F)c2)CCN(c2ccc3cc[nH]c3n2)CC1` as the compound, how does the “% Inhibition” value read?
**A.** 5%

**Q.** What about the Z score of the same compound?
**A.** -1.08

**Q.** How did the “% Inhibition” value turn out when `Cc1cc(C)n([C@@H](C)CC(=O)N2CCN(C(=O)c3ccc(O)cc3)CC2)n1` was run?
**A.** 2%

**Q.** What about the Z score of the same compound?
**A.** -0.25

**Q.** What does the source list for `Cc1cc(C(=O)NC2CCCCC2F)ccc1-n1cncn1` (centres undefined)?
**A.** % Inhibition: -7%; Z score: 1.54

**Q.** Which “% Inhibition” value does the source give for `CCn1c2ccccc2c2cc([C@H]3NCCc4c3[nH]c3ccccc43)ccc21` here?
**A.** 4%

**Q.** What about the Z score of the same compound?
**A.** -0.91

**Q.** For `Nc1ccc(NC2CCCN(C(=O)CNCC3CCCO3)CC2)cn1` (centres undefined), which “% Inhibition” value is on record?
**A.** -7%

**Q.** What about the Z score of the same compound?
**A.** 1.18

**Q.** What does the source list for `CC(C)c1cc(CN(C)C(=O)c2ccc(-c3cnccc3N)cc2)no1`?
**A.** % Inhibition: 2%; Z score: -0.27

**Q.** Which results are given for `COCCN=C(NCCCc1nc2ccccc2[nH]1)N1CCCC1`?
**A.** % Inhibition: -9%; Z score: 1.87

**Q.** Which “% Inhibition” value does the source give for `CN(C)C(=O)CN1CCC(NC(=O)c2cncc(-c3ccc(N(C)C)cc3)c2)CC1` here?
**A.** -12%

**Q.** And the Z score?
**A.** 2.2

**Q.** With `CCN(Cc1cccc(OC2CCCC2)c1)CC1CCN(C2CCN(C)CC2)CC1` as the compound, how does the “% Inhibition” value read?
**A.** 20%

**Q.** And the Z score?
**A.** -3.46

**Q.** Which results are given for `COc1cccc(-c2cc(C(=O)N[C@H]3CCN(c4ccc(-c5nc(C)no5)cn4)C3)[nH]n2)c1`?
**A.** % Inhibition: -4%; Z score: 0.71

**Q.** Which “% Inhibition” value does the source give for `Oc1cc(CNCc2cnn3cccnc23)nc2ccc(F)cc12` here?
**A.** -7%

**Q.** What about the Z score of the same compound?
**A.** 1.17

**Q.** How did the “% Inhibition” value turn out when `CN(Cc1ccc(OCCN2CCN(C(=O)[C@H]3CCOC(C)(C)C3)CC2)cc1)Cc1ccc2ncccc2c1` was run?
**A.** -7%

**Q.** And the Z score?
**A.** 1.25

**Q.** How did the “% Inhibition” value turn out when `C[C@](O)(CN1CCC(NCc2ccccc2)CC1)C(F)(F)F` was run?
**A.** -6%

**Q.** What about the Z score of the same compound?
**A.** 0.96

**Q.** `CN1CCC(N2CCC(CNc3cncc(C(N)=O)n3)CC2)CC1` was tested. Which “% Inhibition” value did it give?
**A.** -15%

**Q.** What about the Z score of the same compound?
**A.** 2.59

**Q.** What does the source list for `CCN(Cc1[nH]c2ccc(Cl)cc2c1C)CC1CCN(C2CCN(C)CC2)CC1`?
**A.** % Inhibition: 85%; Z score: -14.61

**Q.** How did the “% Inhibition” value turn out when `OC1CCN(C2CCN(Cc3ccc(C(F)(F)F)cc3F)CC2)CC1` was run?
**A.** -7%

**Q.** What about the Z score of the same compound?
**A.** 1.16

**Q.** `Cc1nnc(NCc2cccnc2)c2nn(-c3ccccc3)c(C)c12` was tested. Which “% Inhibition” value did it give?
**A.** -7%

**Q.** What about the Z score of the same compound?
**A.** 1.05

**Q.** Which “% Inhibition” value does the source give for `Nc1nc(NCC2(N3CCCCC3)CCCCC2)cc(C2CC(N)C2)n1` (centres undefined) here?
**A.** 8%

**Q.** And the Z score?
**A.** -1.39

**Q.** Which results are given for `Brc1ccc2[nH]c3c(c2c1)CCCC3NC1CCc2[nH]cnc2C1` (centres undefined)?
**A.** % Inhibition: 98%; Z score: -19.51

**Q.** `c1cc(OCCCN2CCOCC2)ccc1CN1C2CCNCC1CC2` (centres undefined) was tested. Which “% Inhibition” value did it give?
**A.** 2%

**Q.** And the Z score?
**A.** -0.46

**Q.** What does the source list for `Cn1cc(-c2nc(C(=O)NC3CCN(c4ccc(C(F)(F)F)cn4)CC3)cs2)cn1`?
**A.** % Inhibition: 22%; Z score: -3.36

**Q.** What does the source list for `Nc1ccnc(-c2ccc(C(=O)N3CCCN(C4CCCCC4)CC3)cc2)c1`?
**A.** % Inhibition: 5%; Z score: -0.92

**Q.** How did the “% Inhibition” value turn out when `Cc1n[nH]c(C)c1CC(=O)NC1c2ccccc2CCC1CO` (centres undefined) was run?
**A.** -5%

**Q.** And the Z score?
**A.** 0.83

**Q.** What does the source list for `CCCc1cncnc1N1CCC(N2CCN(c3cnccn3)CC2)CC1`?
**A.** % Inhibition: -3%; Z score: 0.56

From ChEMBL document CHEMBL5308541, “MAIP: An Open-Source Tool to Enrich High-Throughput Screening Output and Identify Novel, Druglike Molecules with Antimalarial Activity” (ACS Med Chem Lett, 2023)
